# The other results are listed elsewhere or left out.
# Experiments:
# [1] = tested on: HSkMC (human skeletal muscle cells); assay: cytotoxicity call (relative viability < 0.9); conditions: 10 µM
# [2] = tested on: HepG2; assay: cytotoxicity call (relative viability < 0.9); conditions: 10 µM
# [3] = tested on: S. aureus RN4220; assay: growth inhibition call (relative growth <= 0.2); conditions: 50 µM
SMILES,cytotoxicity call [1],cytotoxicity call [2],growth inhibition call [3]
C[C@H]1CCCCO[C@H](CN(C)Cc2ccc(Cl)c(Cl)c2)[C@@H](C)CN([C@@H](C)CO)C(=O)c2cc(NC(=O)Cc3ccccc3)ccc2O1,inactive,active,inactive
COc1ccc(S(=O)(=O)Nc2ccc3c(c2)CC(=O)N([C@@H](C)CO)C[C@@H](C)[C@H](CN(C)Cc2ccncc2)O3)cc1,inactive,inactive,inactive
O=C(C[C@H]1C=C[C@@H](NC(=O)CN2CCOCC2)[C@@H](CO)O1)NC1CCC1,inactive,inactive,inactive
C[C@@H]1CN([C@@H](C)CO)C(=O)Cc2cc(NC(=O)Cn3cnnn3)ccc2O[C@H]1CN(C)C(=O)Nc1ccc(C(F)(F)F)cc1,inactive,inactive,inactive
O=C(C[C@H]1CC[C@@H]2[C@H](COC[C@@H](O)CN2Cc2ccccc2F)O1)N[C@H]1CCN(Cc2ccccc2)C1,inactive,inactive,inactive
Cc1ccc(C(=O)N(CC(N)=O)CC(N)=O)cc1,inactive,inactive,inactive
C[C@@H]1CCCCO[C@H](CN(C)Cc2ccncc2)[C@@H](C)CN([C@@H](C)CO)C(=O)c2cc(NC(=O)Nc3ccccc3)ccc2O1,inactive,inactive,inactive
NCC1CCC(N)C(OC2C(N)CC(N)C(OC3OC(CO)C(O)C(N)C3O)C2O)O1 (stereo unspecified),inactive,inactive,inactive
CC(=O)Oc1cccc(C(=O)O)c1OC(C)=O,inactive,inactive,inactive
CC(=O)N1[C@@H](CO)[C@@H](c2ccccc2)C12CN(C(=O)CN1CCOCC1)C2,inactive,inactive,inactive
Cc1ccc(S(=O)(=O)Nc2ccc3c(c2)C(=O)N([C@H](C)CO)C[C@@H](C)[C@@H](CN(C)C(=O)Cc2ccccc2)OCCCC[C@@H](C)O3)cc1,inactive,inactive,inactive
CCOC(=O)CSc1nc(=O)cc(C)[nH]1,inactive,inactive,inactive
NCC(=O)Nc1nccs1,inactive,inactive,inactive
C[C@@H]1CN([C@H](C)CO)C(=O)c2c(c3ccccc3n2C)-c2ccccc2CO[C@@H]1CN(C)C(=O)c1ccc(F)cc1,inactive,inactive,inactive
C[C@@H]1CN([C@@H](C)CO)C(=O)c2cccc(NC(=O)Nc3cccc4ccccc34)c2O[C@H]1CN(C)S(=O)(=O)c1ccc2c(c1)OCCCO2,inactive,inactive,inactive
C[C@@H]1CCCCO[C@@H](CN(C)C(=O)C2CCCCC2)[C@H](C)CN([C@@H](C)CO)C(=O)c2cc(NC(=O)Nc3cccc4ccccc34)ccc2O1,inactive,inactive,inactive
Cc1noc(C)c1S(=O)(=O)N(C)C[C@H]1Oc2ccc(NS(=O)(=O)c3ccc(F)cc3)cc2C(=O)N([C@@H](C)CO)C[C@H]1C,inactive,inactive,inactive
O=C(C[C@H]1CC[C@H]2[C@@H](COC[C@@H](O)CN2S(=O)(=O)c2ccc(Oc3ccccc3)cc2)O1)NC1CCC1,inactive,inactive,inactive
C[C@@H]1CN([C@@H](C)CO)C(=O)c2c(c3ccccc3n2C)-c2ccccc2CO[C@H]1CN(C)Cc1ccc2c(c1)OCO2,inactive,inactive,inactive
C[C@@H]1CN([C@@H](C)CO)C(=O)c2cc(NC(=O)CCCCCC(=O)Nc3ccccc3N)ccc2O[C@H]1CN(C)C(=O)Nc1ccc(F)cc1,inactive,inactive,inactive
C[C@H](CO)N1C[C@H](C)[C@@H](CN(C)C(=O)NC2CCCCC2)Oc2c(NC(=O)Nc3ccc(C(F)(F)F)cc3)cccc2C1=O,inactive,active,inactive
C[C@H]1CN([C@@H](C)CO)C(=O)c2cccc(NS(=O)(=O)c3cn(C)cn3)c2O[C@H]1CN(C)S(=O)(=O)c1ccccc1,inactive,inactive,inactive
O=C(C[C@@H]1C[C@H]2c3cc(NS(=O)(=O)c4ccc(F)cc4)ccc3O[C@H]2[C@H](CO)O1)NCc1ccccc1,inactive,inactive,inactive
CS(=O)(=O)Nc1ccc2c(c1)[C@@H]1C[C@H](CC(=O)NCC3CC3)O[C@H](CO)[C@@H]1O2,inactive,inactive,inactive
Cc1ccc(OC(=O)N(C)C[C@@H]2OCc3ccccc3-c3ccccc3C(=O)N([C@@H](C)CO)C[C@H]2C)cc1,inactive,inactive,inactive
O=c1[nH]cc(/N=C/c2ccncc2)c(=O)[nH]1,inactive,inactive,inactive
C[C@@H]1CCCCO[C@H](CN(C)C(=O)NC2CCCCC2)[C@@H](C)CN([C@H](C)CO)C(=O)c2cc(NS(=O)(=O)c3cccs3)ccc2O1,inactive,inactive,inactive

# From the antibiotic and cytotoxicity screens of Wong et al. (2023)
